According to patent US20200002439A1 (GENSUN BIOPHARMA, published 2020):

T1: recombinant human VEGF 165 (human, UniProt P15692-4 27-191)
T1 sequence (looked up): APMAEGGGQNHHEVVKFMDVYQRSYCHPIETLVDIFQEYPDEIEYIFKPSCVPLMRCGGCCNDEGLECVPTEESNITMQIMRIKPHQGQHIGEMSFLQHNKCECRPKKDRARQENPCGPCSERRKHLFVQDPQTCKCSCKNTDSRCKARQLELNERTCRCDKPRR

T2: recombinant human Ang2 (human, UniProt O15123 19-496)
T2 construct: also called Ang2 (R&D)
T2 sequence (looked up): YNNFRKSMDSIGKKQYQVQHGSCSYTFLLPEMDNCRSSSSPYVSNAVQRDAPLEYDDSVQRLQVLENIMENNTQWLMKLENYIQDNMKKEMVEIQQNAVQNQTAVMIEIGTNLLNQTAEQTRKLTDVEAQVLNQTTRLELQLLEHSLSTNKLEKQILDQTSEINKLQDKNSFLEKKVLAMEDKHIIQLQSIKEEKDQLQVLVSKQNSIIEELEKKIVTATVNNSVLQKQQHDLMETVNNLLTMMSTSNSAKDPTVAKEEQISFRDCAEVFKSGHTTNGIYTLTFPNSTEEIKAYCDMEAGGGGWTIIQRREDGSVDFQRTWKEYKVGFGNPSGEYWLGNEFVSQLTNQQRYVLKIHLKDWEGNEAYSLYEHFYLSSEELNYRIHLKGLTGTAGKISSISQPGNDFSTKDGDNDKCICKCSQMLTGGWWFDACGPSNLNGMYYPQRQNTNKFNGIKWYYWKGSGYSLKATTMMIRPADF


Experiments:
[1] = molecular target: T1, recombinant human VEGF 165; test: cell-based or functional assay
human TGFβ1 = human TGFβ1 (human, UniProt P01137 fragment); test: cell-based or functional assay
Chain of human TGFβ1 (P01137 279-390 limits assumed): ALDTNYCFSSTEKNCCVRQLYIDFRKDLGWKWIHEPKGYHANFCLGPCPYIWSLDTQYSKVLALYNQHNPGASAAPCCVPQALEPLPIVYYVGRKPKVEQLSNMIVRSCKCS

recombinant human Ang2 = molecular target: T2, recombinant human Ang2; test: blocking ELISA: Ang2 coated on the plate, binding of recombinant human Tie2 is blocked
Description: IC50 values were determined as the mid-point in the activity curve.

[2] = molecular target: T1, recombinant human VEGF 165; test: blocking ELISA: VEGF 165 coated on the plate, binding of recombinant human VEGFR-2 is blocked
Description: (§1) In brief, 96-well assay plates were coated with 0.5 ug/ml of recombinant human VEGF 165 (R&D) in carbonate-bicarbonate buffer (pH 9.6) at 4° C. overnight followed by blocking with 1% BSA/PBS for 1 hour at room temperature. Serially diluted antibodies were then added to the plate and incubated for 30 minutes at room temperature. […] Followed by washing with Wash Buffer, goat anti-mouse IgG-HRP were added to the plate and incubated for 1 hour at room temperature. […] IC50 values were determined as the mid-point in the activity curve.

[3] = molecular target: T1, recombinant human VEGF 165; test: as above; remark: listed apart in the source
Description: as §1

[4] = molecular target: T3, human PD-1 on transfected CHO-K1 cells (human, UniProt Q15116 25-288); test: cell-based blocking assay, flow cytometry: binding of FITC labeled human PD-L1-Fc to human PD-1 transfected CHO-K1 cells is blocked
T3 construct: also called Human PD-1 transfected CHO-K1 cells

[5] = molecular target: T3, human PD-1 on transfected CHO-K1 cells; test: as above; remark: listed apart in the source
T3 sequence (Q15116 25-288 limits assumed): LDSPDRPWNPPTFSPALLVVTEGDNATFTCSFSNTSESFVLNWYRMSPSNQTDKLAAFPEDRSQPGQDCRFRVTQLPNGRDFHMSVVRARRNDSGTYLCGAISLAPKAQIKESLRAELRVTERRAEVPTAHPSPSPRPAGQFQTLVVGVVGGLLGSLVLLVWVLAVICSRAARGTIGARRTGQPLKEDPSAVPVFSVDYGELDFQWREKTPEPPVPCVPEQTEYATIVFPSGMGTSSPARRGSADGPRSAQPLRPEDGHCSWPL

IC50 (read off the curve); luciferase signal of the cell-based VEGF/VEGFR-2 assay [1]	IC50 (read off the curve); luciferase signal of the TGFβ signaling reporter assay (human TGFβ1)	IC50 (recombinant human Ang2)	IC50 [2]	IC50 [3]	IC50 [4]	IC50 [5]	Binder
~0.02 nM	~0.05 nM						TS-ZPB-5B (other) heavy: QVQLVQSGAEVKKPGASVKVSCKASGYTFTSYYIHWVRQAPGQGLEWMGWIFPGSGNSKYNENFKGRVTLTADTSTSTVYMELSSLRSEDTAVYYCASETYDYGDYWGQGTLVTVSSASTKGPSVFPLAPCSRSTSESTAALGCLVKDYFPEPVTVSWNSGALTSGVHTFPAVLQSSGLYSLSSVVTVPSSSLGTKTYTCNVDHKPSNTKVDKRV[human IgG4 Fc with S228P (EU numbers) left out]AGGGGSGGGGSGGGGSSDTGRPFVEMYSEIPEIIHMTEGRELVIPCRVTSPEITVTLKKFPLDTLIPDGKRIIWDSRKGFIISEATYKEIGLLTCEATVNGHLYKTNYLTHRQTNTIIDVVLSPSHGIELSVGEKLVLECTARTELNVGIDFNWEYPSSKHQHKKLVNRDLKTQSGSEMKKFLSTLTIDGVTRSDQGLYTCAASSGLMTKKESTFVRVHEKGGGGSGGGGSGGGGSIPPHVQKSVNNDMIVTDNNGAVKFPQLCKFCDVRFSTCDNQKSCMSNCSITSICEKPQEVCVAVWRKNDENITLETVCHDPKLPYHDFILEDAASPKCIMKEKKKPGETFFMCSCSSDECNDNIIFSEEYNTSNPD light: DIQMTQSPSFLSASVGDRVTITCKASQNVGTNVAWYQQKPGKAPKALIYSASYRYSGVPSRFSGSGSGTEFTLTISSLQPEDFATYYCQQYYSYPYTFGQGTKLEIKRTVAAPSVFIFPPSDEQLKSGTASVVCLLNNFYPREAKVQWKVDNALQSGNSQESVTEQDSKDSTYSLSSTLTLSKADYEKHKVYACEVTHQGLSSPVTKSFNRGEC
~0.02 nM	~0.07 nM						TS-ZPB-5A (other) heavy: QVQLVQSGAEVKKPGASVKVSCKASGYTFTSYYIHWVRQAPGQGLEWMGWIFPGSGNSKYNENFKGRVTLTADTSTSTVYMELSSLRSEDTAVYYCASETYDYGDYWGQGTLVTVSSASTKGPSVFPLAPCSRSTSESTAALGCLVKDYFPEPVTVSWNSGALTSGVHTFPAVLQSSGLYSLSSVVTVPSSSLGTKTYTCNVDHKPSNTKVDKRV[human IgG4 Fc with S228P (EU numbers) left out]AGGGGSGGGGSGGGGSSDTGRPFVEMYSEIPEIIHMTEGRELVIPCRVTSPNITVTLKKFPLDTLIPDGKRIIWDSRKGFIISNATYKEIGLLTCEATVNGHLYKTNYLTHRQTNTIIDVVLSPSHGIELSVGEKLVLNCTARTELNVGIDFNWEYPSSKHQHKKLVNRDLKTQSGSEMKKFLSTLTIDGVTRSDQGLYTCAASSGLMTKKNSTFVRVHEKGGGGSGGGGSGGGGSIPPHVQKSVNNDMIVTDNNGAVKFPQLCKFCDVRFSTCDNQKSCMSNCSITSICEKPQEVCVAVWRKNDENITLETVCHDPKLPYHDFILEDAASPKCIMKEKKKPGETFFMCSCSSDECNDNIIFSEEYNTSNPD light: DIQMTQSPSFLSASVGDRVTITCKASQNVGTNVAWYQQKPGKAPKALIYSASYRYSGVPSRFSGSGSGTEFTLTISSLQPEDFATYYCQQYYSYPYTFGQGTKLEIKRTVAAPSVFIFPPSDEQLKSGTASVVCLLNNFYPREAKVQWKVDNALQSGNSQESVTEQDSKDSTYSLSSTLTLSKADYEKHKVYACEVTHQGLSSPVTKSFNRGEC
		0.65 nM	0.11 nM	0.17 nM	4.62 nM		TS-ZPT-2(2P16) (other) chain 1: QVQLVQSGAEVKKPGASVKVSCKASGYTFTTYYIYWVRQAPGQGLEWMGGINPGNGGTNFNEKFKIRVTMTRDTSISTAYMELSSLRSEDTAVYYCARRYHGYDGGLDYWGQGTLVTVSSASTKGPSVFPLAPCSRSTSESTAALGCLVKDYFPEPVTVSWNSGALTSGVHTFPAVLQSSGLYSLSSVVTVPSSSLGTKTYTCNVDHKPSNTKVDKRV[human IgG4 Fc with S228P (EU numbers) left out]GGGGGAQQEECEWDPWTCEHMGSGSATGGSGSTASSGSGSATHQEECEWDPWTCEHMLEGGGGSGGGGSGGGGSSDTGRPFVEMYSEIPEIIHMTEGRELVIPCRVTSPNITVTLKKFPLDTLIPDGKRIIWDSRKGFIISNATYKEIGLLTCEATVNGHLYKTNYLTHRQTNTIIDVVLSPSHGIELSVGEKLVLNCTARTELNVGIDFNWEYPSSKHQHKKLVNRDLKTQSGSEMKKFLSTLTIDGVTRSDQGLYTCAASSGLMTKKNSTFVRVHEK chain 2: DIVLTQSPASLAVSPGQRATITCRASKSVSTSGFSYIHWYQQKPGQPPKLLIYLASNLESGVPARFSGSGSGTDFTLTINPVEANDTANYYCQHTWELPNTFGGGTKVEIKRTVAAPSVFIFPPSDEQLKSGTASVVCLLNNFYPREAKVQWKVDNALQSGNSQESVTEQDSKDSTYSLSSTLTLSKADYEKHKVYACEVTHQGLSSPVTKSFNRGEC
		0.4 nM	0.26 nM	1.78 nM		1.3 nM	TS-ZPT-5(2P16) (other) heavy: QVQLVQSGAEVKKPGASVKVSCKASGYTFTTYYIYWVRQAPGQGLEWMGGINPGNGGTNFNEKFKIRVTMTRDTSISTAYMELSSLRSEDTAVYYCARRYHGYDGGLDYWGQGTLVTVSSASTKGPSVFPLAPCSRSTSESTAALGCLVKDYFPEPVTVSWNSGALTSGVHTFPAVLQSSGLYSLSSVVTVPSSSLGTKTYTCNVDHKPSNTKVDKRV[human IgG4 Fc with S228P (EU numbers) left out]GGGGSGGGGSGGGGSSDTGRPFVEMYSEIPEIIHMTEGRELVIPCRVTSPNITVTLKKFPLDTLIPDGKRIIWDSRKGFIISNATYKEIGLLTCEATVNGHLYKTNYLTHRQTNTIIDVVLSPSHGIELSVGEKLVLNCTARTELNVGIDFNWEYPSSKHQHKKLVNRDLKTQSGSEMKKFLSTLTIDGVTRSDQGLYTCAASSGLMTKKNSTFVRVHEKGGGGGAQQEECEWDPWTCEHMGSGSATGGSGSTASSGSGSATHQEECEWDPWTCEHMLE light: DIVLTQSPASLAVSPGQRATITCRASKSVSTSGFSYIHWYQQKPGQPPKLLIYLASNLESGVPARFSGSGSGTDFTLTINPVEANDTANYYCQHTWELPNTFGGGTKVEIKRTVAAPSVFIFPPSDEQLKSGTASVVCLLNNFYPREAKVQWKVDNALQSGNSQESVTEQDSKDSTYSLSSTLTLSKADYEKHKVYACEVTHQGLSSPVTKSFNRGEC

Where two headings read alike, the source gives them in different places.
